We go through 1 molecule from patent US20240392035A1 (DENALI THERAPEUTICS, published 2024).

Usually Kd stands for a measure of binding affinity in units of concentration.

The target in this assay is T1, recombinant human TfR apical domain (human).
T1 construct: also called recombinant TfR apical domain; transferrin receptor protein 1
Nature of the assay: SPR (Biacore), protein captured on anti-human Fab chip, human TfR apical domain injected, 1:1 Langmuir fit. The protocol: Affinities of the bispecific proteins were measured by SPR using a Biacore T200 or a Biacore 8K. Biacore™ Series S CM5 sensor chips were immobilized with monoclonal mouse anti-human IgG (Fc) antibody for HER2 affinity measurements or mouse anti-human Fab for TfR affinity measurements (human antibody or Fab capture kit from GE Healthcare). Serial 3-fold dilutions of analyte (recombinant HER2 extracellular domain or recombinant TfR apical domain) were injected at a flow rate of […]. Each sample was analyzed using a 3-minute association and a 10-minute dissociation for HER2 extracellular domain binding and a 40-second association and a 3-minute dissociation for human TfR apical domain binding. After each injection, the chip was regenerated using 3 M MgCl₂ or 50 mM glycine at pH 2.0. Binding response was corrected by subtracting the RU from a flow cell capturing an irrelevant IgG at similar density. A 1:1 Languir model of simultaneous fitting of kon and koff was used for kinetics analysis. […] The two constructs are described below.
For orientation: SPR reads the build-up and loss of mass on a sensor chip optically.

B1: Bispecific Protein #6 (bispecific antibody, human IgG1, kappa)
heavy 1: EVQLVESGGGLVQPGGSLRLSCAASGFTFTDYTMDWVRQAPGKGLEWVADVNPNSGGSIYNQRFKGRFTLSVDRSKNTLYLQMNSLRAEDTAVYYCARNLGPSFYFDYWGQGTLVTVSSASTKGPSVF[about 250 residues cut from this listing][about 200 residues cut from this listing]
heavy 2: EVQLVESGGGLVQPGGSLRLSCAASGFTFTDYTMDWVRQAPGKGLEWVADVNPNSGGSIYNQRFKGRFTLSVDRSKNTLYLQMNSLRAEDTAVYYCARNLGPSFYFDYWGQGTLVTVSSASTKGPSVF[about 450 residues with a human IgG1 Fc cut from this listing]
light: DIQMTQSPSSLSASVGDRVTITCKASQDVSIGVAWYQQKPGKAPKLLIYSASYRYTGVPSRFSGSGSGTDFTLTISSLQPEDFATYYCQQYYIYPYTFGQGTKVEIKRTVAAPSVF[about 200 residues cut from this listing]
In the case of B1, the Kd was found to be 0.49 µM.
